Screen size: about 48,000 compounds; about 550 (1.1%) were called active. Not shown: some 4% with an inconclusive outcome. Cut-off read from the data, not from the text of the source: active = potency below about 15 µM; inconclusive = mostly about 16 µM to 33 µM; inactive = weaker than that. Some of the results follow.
These molecules were tested against Lysosomal acid glucosylceramidase (Homo sapiens) (UniProt P04062) (assay: Glucocerebrosidase). Details: purified enzyme, resorufin glucoside fluorescence (screen aimed at inhibitors), 20 min.
UniProt P04062, sequence (P04062 whole entry, looked up): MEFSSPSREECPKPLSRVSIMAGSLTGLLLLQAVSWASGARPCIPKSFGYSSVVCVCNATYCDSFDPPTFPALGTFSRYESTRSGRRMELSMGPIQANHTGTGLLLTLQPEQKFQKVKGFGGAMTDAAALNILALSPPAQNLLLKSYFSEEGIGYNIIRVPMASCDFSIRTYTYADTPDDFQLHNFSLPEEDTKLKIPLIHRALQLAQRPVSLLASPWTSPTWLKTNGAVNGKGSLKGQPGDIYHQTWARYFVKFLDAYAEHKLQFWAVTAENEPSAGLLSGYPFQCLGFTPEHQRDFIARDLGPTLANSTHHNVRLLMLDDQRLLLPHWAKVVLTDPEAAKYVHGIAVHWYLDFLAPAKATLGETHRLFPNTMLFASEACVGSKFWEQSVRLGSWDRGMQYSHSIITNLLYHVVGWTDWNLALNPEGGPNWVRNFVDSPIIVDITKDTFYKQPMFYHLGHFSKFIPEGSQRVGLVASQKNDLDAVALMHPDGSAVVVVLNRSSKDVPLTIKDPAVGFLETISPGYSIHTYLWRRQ
How it was run: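 Normal human glucocerebrosidase (0.2 nM final) was assayed with resorufin β-D-glucopyranoside (30 uM final) in 50mM citric acid/KH2PO4, 10mM sodium taurocholate, 0.01% tween-20, pH 5.9. Compounds were titrated; fluorescence (Ex 548, Em 600) read after 20 min at RT.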
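Note: the screen sought inhibitors.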
Potency is the fitted concentration of half-maximal effect.

Potency, inactive:
Cc1ccc(F)cc1NC(=O)c1cccc(N(C)C)c1 > 76.9 µM, COc1cccc(/C(O)=C2/C(=O)C(=O)N(c3cc(C)on3)C2c2cccs2)c1 (stereo unspecified) > 76.9 µM, COc1ccc(NC(=O)c2c(F)c(F)c(F)c(F)c2F)cc1Cl > 76.9 µM, CCOc1ccc(CCNC(=O)C2CCCN(C(=O)N(C)C)C2)cc1OCC (stereo unspecified) > 76.9 µM, Nc1nc(-c2ccco2)nn1C(=O)CCc1ccccc1 > 76.9 µM, CCOc1cc(S(=O)(=O)N2CCN(Cc3ccccc3)CC2)ccc1Br, CCOc1ccccc1NC(=O)CN(Cc1ccccc1)S(C)(=O)=O > 76.9 µM, CCOC(=O)N1CCN(C(=O)CSCC(=O)N=c2sc3cc(OC)ccc3n2C)CC1 > 76.9 µM, CCN(CC)S(=O)(=O)c1cccc(-c2nnc(SCc3nnc(-c4cccs4)o3)n2N)c1 > 76.9 µM, O=C(NCC1CCCCC1)c1ccco1 > 76.9 µM, C=CCn1c(SCC(=O)Nc2ccccc2OC)nnc1-c1ccco1 > 76.9 µM, COc1cccc(NC(=O)COc2ccc(N3CC(C(=O)NCC(C)C)CC3=O)cc2)c1 (stereo unspecified) > 76.9 µM, COCCCNC(=O)Cn1ncc2c(=O)oc3ccccc3c21 > 76.9 µM, CC(=O)c1cccc(NC(=O)N2CCCC2C(=O)Nc2cccc(C)c2)c1 (stereo unspecified) > 76.9 µM, COC(=O)c1ccc2c(=O)n(CCO)c(=S)[nH]c2c1, COc1ccc(CCN2CNc3c(c(=O)n(C)c(=O)n3C)C2)cc1 > 76.9 µM, CCCOC(=O)C1=C(C)NC2=C(C(=O)CCC2)C1c1ccc(N(C)C)cc1 (stereo unspecified) > 76.9 µM, CC1CCc2c(sc3nc(C4CC4)nc(SCC(=O)NCc4ccco4)c23)C1 (stereo unspecified) > 76.9 µM, C=CCn1c(Br)nc2c1c(=O)[nH]c(=O)n2C > 76.9 µM, Oc1ccc2ccccc2c1C=NCc1cn2ccsc2n1 > 76.9 µM, O=C(CCc1ccccc1)Nc1ncn[nH]1 > 76.9 µM, Cc1oc(-c2ccccc2F)nc1CSCC(=O)NCc1ccc2c(c1)OCO2 > 76.9 µM, CCOC(=O)c1cc2c(N)c(C(=O)c3cc(C#N)c(SC)nc3C)sc2nc1C > 76.9 µM, CCCc1[nH]nc2c1C(c1ccc(OC)c(CSC3=NCCS3)c1)C(C#N)=C(N)O2 (stereo unspecified) > 76.9 µM, CCN(CC(=O)NCc1cccs1)C(=O)c1cc(S(=O)(=O)N2CCOCC2)ccc1C > 76.9 µM, O=C(C(c1ccccc1)c1ccccc1)N(Cc1ccco1)C1CCS(=O)(=O)C1 (stereo unspecified) > 76.9 µM, Cc1cc(C)c2[nH]c(=O)c(CN(CC3CCCO3)S(=O)(=O)c3ccc4c(c3)OCCO4)cc2c1 (stereo unspecified) > 76.9 µM, Cc1nn(CC(=O)N2CCN(Cc3ccccc3)CC2)c(=O)c2ccccc12 > 76.9 µM, Cc1ccc(CNC(=O)CN2C(=O)C3(OCCCO3)c3ccccc32)cc1 > 76.9 µM, Cn1c(CCc2ccccc2)nnc1SCC(=O)N1CCCC1 > 76.9 µM, O=C(c1csc2c1CCCC2)N1CCN(c2ccccc2)CC1 > 76.9 µM, Cc1ccc(NC(=O)Cn2c(=O)n(CCCCC(=O)NCc3ccco3)c(=O)c3ccccc32)cc1 > 76.9 µM, CC(C)C(=O)NC(C)C(c1cccs1)N1CCN(C)CC1 (stereo unspecified) > 76.9 µM, CCCc1nc2ccccc2c2nc(N)nn12 > 76.9 µM, COc1ccc(CCNC(=O)CCN2C(=O)COc3ccc(C)cc32)cc1OC > 76.9 µM, CN(CCO)C(=O)CCC(=O)Nc1ccc(S(N)(=O)=O)cc1 > 76.9 µM, O=C(Nc1ccccc1C(=O)N1CCCCC1)C1CCCCC1 > 76.9 µM, Nc1cc(N)c(OCC(F)(F)F)cc1OCC(F)(F)F > 76.9 µM, O=C(CCN1C(=O)c2ccccc2C1=O)N1CCC(c2ccccc2)C1 (stereo unspecified) > 76.9 µM, CCCc1nnc(NC(=O)CN2CCOCC2)s1 > 76.9 µM, Cc1nn(-c2ccccc2)c2sc(C(=O)N3CCCCC3)cc12 > 76.9 µM, CCOc1ccccc1NC(=O)N1CCC(c2nc3ccc(C)cc3[nH]2)CC1, CCOC(=O)c1ccc(NC(=O)CC2C(=O)N(c3ccc(F)cc3)C(=O)N2CCCOC)cc1 (stereo unspecified) > 76.9 µM, O=C(NCc1ccccn1)C1CCCN(S(=O)(=O)c2ccccc2)C1 (stereo unspecified) > 76.9 µM, Cc1ccc2[nH]c(=O)c(CN(Cc3cccnc3)C(=O)c3ccncc3)cc2c1 > 76.9 µM, CC(=O)CC(C)(C)n1nnc(-c2ccccc2)n1 > 76.9 µM, CCOC(=O)CSc1nc2ccccc2n1CC(=O)NC(C)(C)C > 76.9 µM, CC1CCCC(C)N1C(=O)CSc1nnc(CSc2ncccn2)n1C (stereo unspecified) > 76.9 µM, c1cc2c(cc1-c1cnc3n1CCC3)OCCO2 > 76.9 µM, N#CCCN(CCC#N)C(=O)c1ccc(Cl)cc1 > 76.9 µM, COc1cccc(-c2cc(C(=O)Nc3cnn(Cc4ccc(F)cc4)c3)no2)c1 > 76.9 µM, Cn1cccc1C1(C(F)(F)F)NCCNC1=O (stereo unspecified) > 76.9 µM, CC1(C)Cc2ccccc2-c2nnc(-c3cccnc3)n21 > 76.9 µM, O=S(=O)(c1ccc(S(=O)(=O)N2CCN(C/C=C/c3ccccc3)CC2)cc1)N1CCCC1 > 76.9 µM, N#Cc1c(NC(=O)CSc2ncnc3sccc23)oc(-c2ccco2)c1-c1ccco1, COC(=O)Cc1nc2ccccc2[nH]1 > 76.9 µM, CCSc1nc2c(c(=O)n1Cc1ccccc1)SC(C)C2 (stereo unspecified) > 76.9 µM, CCCOc1ccc(C2C(=O)N(C3CCCCC3)CC(=O)N2CCCOCC)cc1OC (stereo unspecified) > 76.9 µM, Cn1nnc2cc(C(=O)N3CCSCC3)ccc21 > 76.9 µM, CCN1CCN(C(c2ccccc2)c2nnnn2CCc2ccc(OC)c(OC)c2)CC1 (stereo unspecified) > 76.9 µM, S=c1nc(C2CC2)[nH]c2ccccc12 > 76.9 µM, COc1ccccc1-c1nc(C#N)c(N2CCN(c3cccc(Cl)c3)CC2)o1 > 76.9 µM, Cc1cccc(N(C(=O)Cn2nnc3ccccc32)C(C(=O)NCc2ccco2)c2ccncc2)c1 (stereo unspecified) > 76.9 µM, Cn1c(=O)c(C(=O)CN2CCCc3ccccc32)c(N)n(Cc2ccccc2)c1=O > 76.9 µM, Cc1ccc(CNc2ncc(-c3ccc4c(c3)OCO4)n2C)cc1 > 76.9 µM, COC(=O)C1=C(C)N(CCC2=CCCCC2)C(=O)C1 > 76.9 µM, CC1CCCCN1C(=O)CSc1nc2cc3c(cc2c(=O)n1Cc1ccc2c(c1)OCO2)OCO3 (stereo unspecified), COc1cccc(C2C=C(c3cccs3)Nc3ncnn32)c1OC (stereo unspecified) > 76.9 µM, O=C(O)C1CCCCC1C(=O)NCCCCc1ccccc1 (stereo unspecified) > 76.9 µM, CCOC(=O)COc1ccc(C(=O)c2ccccc2)c(O)c1 > 76.9 µM, N#CCC(=O)N1CCn2c1nc1ccccc12 > 76.9 µM, O=C(CN1C2=NCCCN2c2ccccc21)c1ccc2c(c1)OCO2 > 76.9 µM, COc1ccccc1NC(=O)C1CCCN(S(=O)(=O)c2cccc3nsnc23)C1 (stereo unspecified) > 76.9 µM, CCN1CCN(/C=N/c2nc(C)cs2)CC1 > 76.9 µM, COc1ccc(S(=O)(=O)NCCCCNS(=O)(=O)c2ccc(OC)cc2)cc1 > 76.9 µM, O=C(Nc1ccon1)c1sc2ccccc2c1Cl > 76.9 µM, COc1ccc(NC(=O)c2ccc(S(=O)(=O)N3CCOCC3)cc2)c(OC)c1 > 76.9 µM, O=C(c1cc(-c2cccs2)on1)N1CCN(c2ccc(F)cc2)CC1 > 76.9 µM, Cc1cnc(C(=O)Nc2ccc(C(=O)N(C)C3CCCCC3)cc2)cn1 > 76.9 µM, CC1CN(C(=O)c2cc3c(s2)CCC3)CC(C)O1 (stereo unspecified) > 76.9 µM, COc1ccc2oc(=O)c(C(=O)N3CCCc4ccccc43)cc2c1 > 76.9 µM, COC(=O)[C@H](CCSC)NC(=O)NCc1cccs1 > 76.9 µM, COCCN1C(=O)C(=O)/C(=C(/O)c2ccc3c(c2)OCCO3)C1c1ccc(C(=O)OC)cc1 (stereo unspecified) > 76.9 µM, CCN1CCCC(OC(=O)Nc2ccccc2)C1 (stereo unspecified) > 76.9 µM, COc1ccc(OC)c(C(c2nnnn2Cc2ccccc2)N2CCN(C3CCCCC3)CC2)c1 (stereo unspecified) > 76.9 µM, CCn1c(-c2ccc(OC)c(OC)c2)n[nH]c1=S > 76.9 µM, COc1ccccc1Oc1nc2c(c(=O)n(Cc3ccccc3F)c(=O)n2C)n1C > 76.9 µM, Cc1ccc(S(=O)(=O)N2CCC(C(=O)NCCCN3CCCCCC3)CC2)cc1 > 76.9 µM, COCCn1c(COc2ccc(Cl)cc2)nnc1SCC(N)=O > 76.9 µM, O=C(OCC(=O)c1ccc[nH]1)c1ccc(S(=O)(=O)N2CCCCC2)cc1 > 76.9 µM, CCOc1nc(N(C)C)nc(-n2nnc(C(C)=O)c2C)n1 > 76.9 µM

From PubChem BioAssay AID360 (National Center for Advancing Translational Sciences (NCATS), 2006)
